Data on 43 molecules can be found in paper PMC4336329 (PLoS ONE, 2015).

Hit rate of the full screen: of about 310,000 compounds, about 14,000 (4.5%) showed an effect of 50% or more. Effects have a minus sign here. The list shows a part of the results.
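Also: peak tail current of the secondary pulse compared with the same well before compound.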

The target of this experiment is human ether-à-go-go-related gene (hERG) potassium channel (human, UniProt Q12809). Put plainly: primary screen, population patch clamp on CHO cells stably expressing hERG.
human ether-à-go-go-related gene (hERG) potassium channel, sequence (Q12809 whole entry, looked up): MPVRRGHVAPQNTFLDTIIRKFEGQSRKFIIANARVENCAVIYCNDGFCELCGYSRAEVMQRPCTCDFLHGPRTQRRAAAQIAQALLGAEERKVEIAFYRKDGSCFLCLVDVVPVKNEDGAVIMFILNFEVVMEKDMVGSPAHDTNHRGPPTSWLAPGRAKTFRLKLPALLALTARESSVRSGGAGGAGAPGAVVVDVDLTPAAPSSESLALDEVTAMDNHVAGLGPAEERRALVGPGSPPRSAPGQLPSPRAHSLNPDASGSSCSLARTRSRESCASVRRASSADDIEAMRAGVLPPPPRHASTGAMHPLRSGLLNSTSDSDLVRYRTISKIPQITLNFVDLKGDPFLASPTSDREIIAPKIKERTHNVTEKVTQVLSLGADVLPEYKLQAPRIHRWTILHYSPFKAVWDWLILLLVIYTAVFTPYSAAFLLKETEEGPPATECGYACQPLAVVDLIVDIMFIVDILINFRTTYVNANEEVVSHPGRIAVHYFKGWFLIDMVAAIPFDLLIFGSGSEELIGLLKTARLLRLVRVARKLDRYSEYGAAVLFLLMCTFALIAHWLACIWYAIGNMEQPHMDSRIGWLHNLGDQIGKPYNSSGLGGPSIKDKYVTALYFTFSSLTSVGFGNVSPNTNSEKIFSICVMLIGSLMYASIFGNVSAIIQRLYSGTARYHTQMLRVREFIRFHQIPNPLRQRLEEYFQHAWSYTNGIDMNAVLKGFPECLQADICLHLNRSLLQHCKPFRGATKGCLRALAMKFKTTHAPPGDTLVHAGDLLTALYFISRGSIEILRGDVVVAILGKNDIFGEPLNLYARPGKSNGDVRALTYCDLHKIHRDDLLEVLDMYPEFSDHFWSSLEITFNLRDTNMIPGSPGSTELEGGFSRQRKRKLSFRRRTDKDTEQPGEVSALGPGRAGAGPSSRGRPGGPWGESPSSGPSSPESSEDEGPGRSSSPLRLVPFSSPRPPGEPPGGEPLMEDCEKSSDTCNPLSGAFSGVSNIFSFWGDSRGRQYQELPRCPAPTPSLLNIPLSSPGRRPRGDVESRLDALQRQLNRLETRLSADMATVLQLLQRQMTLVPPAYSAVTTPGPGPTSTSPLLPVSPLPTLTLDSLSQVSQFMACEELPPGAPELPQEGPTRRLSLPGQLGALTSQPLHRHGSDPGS
As to `COC(=O)c1cc(C(=O)OCC(=O)NCc2ccc3c(c2)OCO3)cc([N+](=O)[O-])c1`, the “hERG current change (%, negative = inhibition) at 10uM” value was found to be 5.12%.
For `O=C(COC(=O)Cc1ccc(S(=O)(=O)N2CCOCC2)s1)NCCc1ccccc1` the value was -1.49%; for `CC(O)CN1C(=O)C(CC(=O)Nc2ccc(Cl)cc2)SC1=Nc1ccccc1` (stereo not shown), 4.32%; for `COc1ccc(CCNc2oc(-c3ccc(C)cc3)nc2C#N)cc1OC`, 13.6%.
As for `CN(CC(=O)Nc1c(Cl)cccc1Cl)C(=O)c1ccccc1Cc1ccccc1`, the “hERG current change (%, negative = inhibition) at 10uM” value is listed as -20.7%.
As to `COC(=O)c1c(C)[nH]c(C(=O)C(C)OC(=O)C2CC(=O)N(c3ccc(C)cc3)C2)c1C` (stereo not shown), the “hERG current change (%, negative = inhibition) at 10uM” value is reported as -14.5%.
On to `CN1C(=O)CC(P(=O)(c2ccccc2)c2ccccc2)N(C)C1=O` (stereo not shown), for which the “hERG current change (%, negative = inhibition) at 10uM” value was 17.1%.
`CCN(Cc1ccncc1)Cc1ccc(Br)cc1.O=C(O)C(=O)O`: the “hERG current change (%, negative = inhibition) at 10uM” value was -5.38%.
Regarding `Cc1ccc(C2C3=C(CC(C)(C)CC3=O)N=C3c4ccccc4C(=O)C32)cc1` (stereo not shown), the “hERG current change (%, negative = inhibition) at 10uM” value was -12%.
As for `CCOC(=O)c1nncc(-c2ccccc2)n1`, the “hERG current change (%, negative = inhibition) at 10uM” value amounted to 9.45%.
Regarding `COc1ccc2[nH]c3c(=O)n(/N=C/c4ccc(OC)c(CN5CCCC5)c4)c(C)nc3c2c1`, the “hERG current change (%, negative = inhibition) at 10uM” value is recorded as -45.3%.
As to `COc1ccc(-c2nnn(CC(=O)OC3CCCCC3)n2)cc1OC`, the “hERG current change (%, negative = inhibition) at 10uM” value was -8%.
For `COc1ccc(NCc2n[nH]c(=O)c3ccccc23)cc1` the value was 4.37%.
Consider `CN1c2ccccc2C(C)(C)C12CC(c1ccc(S(=O)(=O)N3CCCCC3)cc1)=NO2` (stereo not shown), for which the “hERG current change (%, negative = inhibition) at 10uM” value was found to be 8.51%.
`CSc1cccc(NC(=S)N2CCCN(Cc3ccccc3F)C2)c1`: the “hERG current change (%, negative = inhibition) at 10uM” value was -20.3%.
As for `CC(C)(C)OC(=O)N1CCC(NC(=O)c2[nH]cnc2C(=O)Nc2ccccc2)CC1`, the “hERG current change (%, negative = inhibition) at 10uM” value is reported as -15%.
For `CCOc1ccc(S(=O)(=O)NCCCn2ccnc2)cc1` the value was -9.31%.
On to `CCN1CCc2c(sc(NC(=O)c3ccc(S(=O)(=O)N(C)CC4CCCO4)cc3)c2C(N)=O)C1.Cl` (stereo not shown), for which the “hERG current change (%, negative = inhibition) at 10uM” value is on record as -17.8%.
For `O=C(O)CSC1c2ccccc2C(=O)N1Cc1ccccc1` (stereo not shown) the value was 11.1%; for `CCN(CC)S(=O)(=O)c1ccc(C(=O)NN(C)C2=NS(=O)(=O)c3ccccc32)cc1`, 14.9%; for `CN(C)c1ccc(C2C3C=CC(C3)C2(C#N)C(=O)O)c(Br)c1` (stereo not shown), 12.2%.
Turning to `CCC(C)Sc1nc2c(c(=O)n1C)SC(C)C2` (stereo not shown), the “hERG current change (%, negative = inhibition) at 10uM” value is reported as -17.5%.
Regarding `N#C/C(=C\c1ccc2c(c1)OCCO2)C(=O)NC1CCCCC1`, the “hERG current change (%, negative = inhibition) at 10uM” value is given as 3.05%.
Turning to `CCCNC(=O)COC(=O)c1cccnc1Nc1ccccc1F`, the “hERG current change (%, negative = inhibition) at 10uM” value is -9.21%.
As for `CN(CCc1ccccn1)c1ncnc2[nH]ncc12`, the “hERG current change (%, negative = inhibition) at 10uM” value worked out at 0.429%.
For `CCOC(=O)N/N=C/C=C/c1ccccc1` the value was 1.98%.
For `Cc1cc(C(=O)NCCCn2ccnc2)cs1` the value was -22.1%; for `CCOc1cc(C2C(C(=O)OC)=CN(Cc3ccc(Cl)cc3)C=C2C(=O)OC)ccc1O`, -2.9%; for `Cc1ccoc1C(=O)NCc1occc1C(=O)O`, -5.26%.
For `COc1cc(C2SC(C)C(=O)N2CCc2ccccc2)cc(OC)c1OC` (stereo not shown) the value was -2.74%; for `COc1ccc(CCN(C)C2CCCN(C(=O)c3sccc3C)C2)cc1OC` (stereo not shown), -55%; for `Nc1nonc1-c1noc(COc2ccccc2Cl)n1`, -20.4%.
For `Cc1ccc(C(=O)NN(CCC#N)C2=NS(=O)(=O)c3ccccc32)cc1`, the “hERG current change (%, negative = inhibition) at 10uM” value came to 2.12%.
For `C/C(=N/NC(=O)c1ccc2c(c1)OCO2)c1ccc(NC(=O)C(F)(F)F)cc1` the value was -3.67%.
For `Oc1cc2ccccc2nc1-c1ccccc1Cl` the value was 10.5%; for `O=C(NCc1ccco1)c1ccc(CS(=O)(=O)Cc2ccc(Cl)cc2)o1`, -22.1%.
As to `COc1ccccc1N1CCN(C(CNC(=O)c2ccco2)c2cccnc2)CC1` (stereo not shown), the “hERG current change (%, negative = inhibition) at 10uM” value is -6.27%.
Turning to `Br.CCCN1CCc2cc(O)cc3c2[C@H]1Cc1ccc(O)c(O)c1-3.O`, the “hERG current change (%, negative = inhibition) at 10uM” value was -57.8%.
For `CN(C)C(=O)c1cnc(Sc2ncc(C(F)(F)F)cc2Cl)n1C` the value was 1.29%.
For `CCNS(=O)(=O)c1ccc(CCC(=O)NCc2ccccc2)cc1` the value was -19.6%.
In the case of `O=C(CCc1cccc(Cl)c1)NC1CCCN(Cc2ccccc2F)C1` (stereo not shown), the “hERG current change (%, negative = inhibition) at 10uM” value is reported as -28.3%.
With `Cc1ccc(-c2onc3ccc(C4(C)OCCO4)cc23)cc1`, the “hERG current change (%, negative = inhibition) at 10uM” value turned out to be 1.79%.
Turning to `Cc1ccc2oc(C(=O)NCC(c3ccco3)N(C)C)c(C)c2c1` (stereo not shown), the “hERG current change (%, negative = inhibition) at 10uM” value is -8.52%.
